In the supplement of paper PMC10338343:
± gives the standard deviation. This is a selection; strong and weak results do not stand in their true shares.

These sequences were tested on MIWI (PIWIL1) piRISC loaded with L1MC piRNA (30 nt) (assay: pre-steady-state target cleavage rate (min^-1); MIWI and MILI are mouse PIWI proteins and EfPiwi is from a freshwater sponge; tags in brackets are library labels; higher = faster piRNA-guided slicing of the target). Conditions: guide: L1MC piRNA 5'p-UAACUAAAUACUAUGCAAGCUGUAGGUCCU; auxiliary factor: 500 nM mouse GTSF1.
Summary of the method: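 A transcribed, DNA-blocked target RNA library (0.1 nM) and 1 nM active affinity-purified piRISC bearing one synthetic guide were incubated in HEPES–potassium acetate buffer at 33 °C for 0–8 or 0–960 min, either with or without 500 nM GTSF1 partner protein. Uncleaved targets were sequenced, normalised to depth and to weakly complementary targets, and pooled over three trials, with k3 capped at 0.0001 min^-1. The pre-steady-state cleavage rate was derived with a burst-and-steady-state fit.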

Sequence	pre-steady-state target cleavage rate
UCCUGCUACUGGUUGCAUAGUAUUUAGUUA	0.983 ± 0.048
UCCUGGAACAGCUCGCAUAGUAUUUAGUUA	1.08 ± 0.035
UCGACCUACACCUUGCAUAGUUUUUAGUUA	0.285 ± 0.03
UCCUGCUACAGCUUGCAUAGUAUUUAGAAA	0.381 ± 0.048
UGGACCUUCAGCUUGCAUAGUAUUUAGAUA	0.445 ± 0.037
UCCUCCUAGAGCUUGCAUAGUAUUUAGAAA	0.194 ± 0.032
AGGACCUACAGCUUGCAUAGUAUAAUGUAA	0.343 ± 0.064
UCCACGUACAGCUUGCAUUGUAUUUAGUUA	0.809 ± 0.03
UCCUGCUUCAGCUUGCAUAGAAUUUAGUUA	0.382 ± 0.028
UGGACGUACAGCUUGCAUACUAUUUAGUUA	0.291 ± 0.018
UCCUGCUACACUUGCAUAGUAUUUAGUUA	0.81 ± 0.034
AGGACCUACAGCUUGCAAAGUUUUUAGUUA	0.393 ± 0.021
UCCUGCUACAGCUAGGAUAGUAUUUAGUUA	1.15 ± 0.12
UCCUGGAUGUCCUUUGCAUAGUAUUUAGUUA	0.0656 ± 0.011
UGGACCAACAGCUUGCAUAGUAUUUACAAA	0.235 ± 0.026
UCCAGCUACAGCUUGCAUAGUAUUAAGUUA	0.558 ± 0.043
UCCUCCUAGUGCUUGCAUAGUAUUUAGAAA	0.0872 ± 0.018
UCCACCUACAGCUUCGCAUAGUAUUUAGUUA	0.911 ± 0.056
UCCACCUACAGCAUGCAUAGUAUUUAGUUA	0.977 ± 0.054
UCCUGGAUGUCGAACGUAUCUUUUAGUUA	< 0.0001

Sequence	pre-steady-state target cleavage rate
UCCUGGAUGUGCUUGCAUAGUAUGUAGUUA	0.106 ± 0.017
UCGACCAACAGCUUGCAUAGUAUUUAGAAA	0.615 ± 0.045
UGGUCCUACAGCUUGCAUAGUAUUUAGAUA	0.414 ± 0.033
UCCUGCUACACCUUGCAAAGUAUUUAGUUA	0.692 ± 0.041
UCCUGGAACAGCUUGUCAUAGUAUUUAGUUA	0.306 ± 0.03
UCCUGCUACAGCUUGGUUAGUAUUUAGUUA	0.981 ± 0.071
UCCUGGUACAGCUUGGAUAGUAUUUAGUAA	0.421 ± 0.095
UCCUGGAAGAGCUUGCAUAGUAUUUAGUUA	0.875 ± 0.046
UCCUCCUUCAGCUUCCAUAGUAUUUAGUUA	0.0615 ± 0.018
UGCACCUACAGCUUGCAUAGUAUUUAGAUA	0.499 ± 0.043
UCCACCAUGAGCUUGCAUAGUAUUUAGAAA	0.298 ± 0.035
UCCUGCUACAGCUUGCAAAGUAAUUAGUUA	0.441 ± 0.035
UCCUGGUACAGCUUGCAUAGUUAUUUAGUUA	0.0264 ± 0.0086
AGGACCUACAGGUUGCAUAGUAAUUAGUUA	0.773 ± 0.067
UCCUGGAUCAGCAUGCAUUGUAUUUAGUUA	0.254 ± 0.028
UCCUGGAACUGCUUGCAUAGUAUAUAGUUA	0.248 ± 0.027
UGGACCUACAGCUUGCAUACUAUUUACAAA	0.0671 ± 0.012
UCCUGGAUGUGCUUGCAUAGUAUUAAGUUA	0.179 ± 0.021
UGGACCUACAGCUUCCAUAGUAUUUAGUAA	0.0222 ± 0.0064
UGGACCACAGCUUGCAUAGUAUUUAGUUA	1.47 ± 0.083
